Test results reported in the supplement of paper PMC10126150.
Sequences with one replicate were seen in a single cluster, so their values are uncertain.

Test system: ATP
Test: switch fluorescence ratio, 500 uM ATP over buffer (Cy3 cluster intensity, sum of 5 cycles each) (fold (ratio)); higher = stronger signal-on switching upon ATP binding; sequences stand for … in TCGTCGGCAGCGTCAGATGTGTATAAGAGACAGTTTTTTTTTTTTTTTTTTTTTTTTT…TC
Details: aptamer strand: ATP DNA aptamer (quencher-CACCTGGGGGAGTATTGCGGAGGAAGG + anchor), 100 nM annealed; ATP concentration: 500 uM; one replicate
Outline: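 The fluorescence ratio divides summed target-cycle Cy3 intensity by summed buffer-cycle Cy3 intensity for each cluster and is averaged per switch-domain sequence. Cy3-labelled switching-strand clusters on a modified Illumina MiSeq flow-cell were annealed to 100 nM quencher-labelled ATP aptamer, then imaged in selection buffer and again after 15 min with 500 uM ATP at 22 °C. Five such cycles were run, with NaOH stripping and re-annealing between them, and clusters outside 100-1000 RFU were excluded.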
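Note: ATP exposure 15 min at 22 °C before imaging.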

## ATAATATG
  switch fluorescence ratio: 0.969

## AGCCTCGCGT
  switch fluorescence ratio: 1

## TGGAGCAAGT
  switch fluorescence ratio: 4.06

## TTGGGCACAT
  switch fluorescence ratio: 1.02

## TAGGGTGGGT
  switch fluorescence ratio: 1.01

## CTACCGTGCC
  switch fluorescence ratio: 1.35

## TACAGGCCGG
  switch fluorescence ratio: 1.02

## ATCAAGCACA
  switch fluorescence ratio: 1.31

## GCCAGCCGGG
  switch fluorescence ratio: 1.15

## CGTAGGGTGG
  switch fluorescence ratio: 0.997

## ATCTGTGCCG
  switch fluorescence ratio: 0.952

## ACTCTTGCGA
  switch fluorescence ratio: 1.9

## CCAGGGGAAA
  switch fluorescence ratio: 1.02

## AAGCGTGGCT
  switch fluorescence ratio: 0.974

## CTCATGGATG
  switch fluorescence ratio: 0.963

## GACCACGCGA
  switch fluorescence ratio: 3.09

## GAACGAAAAG
  switch fluorescence ratio: 1

## TCTCAAATTG
  switch fluorescence ratio: 1.01

## TACTTGGGCT
  switch fluorescence ratio: 1.02

## CTAACGAACG
  switch fluorescence ratio: 1.16

## GCCGGAGTCG
  switch fluorescence ratio: 0.831

## AGACTGTACG
  switch fluorescence ratio: 1.07

## GTGTTCCTAG
  switch fluorescence ratio: 0.989

## GCACTACATT
  switch fluorescence ratio: 1.06

## CTCTAACAAT
  switch fluorescence ratio: 1.23

## TTCCCGGTCA
  switch fluorescence ratio: 1.05

## TCTATGGGGA
  switch fluorescence ratio: 1.02

## GTATAATATT
  switch fluorescence ratio: 1.01

## GCGCCTGGA
  switch fluorescence ratio: 1.01

## TGGCTCACAT
  switch fluorescence ratio: 1.04

## TCTAGAGGTA
  switch fluorescence ratio: 0.98

## GGGGTCTTCG
  switch fluorescence ratio: 1.02

## GACTGGAAAA
  switch fluorescence ratio: 1.01

## TATTGGCACG
  switch fluorescence ratio: 0.987

## CTGTTGACTC
  switch fluorescence ratio: 1.03

## TCTGGTACTC
  switch fluorescence ratio: 1.09

## ACACCGGTCG
  switch fluorescence ratio: 0.992

## GGGTGTT
  switch fluorescence ratio: 1.04

## CTAGTTATGT
  switch fluorescence ratio: 1

## ATCTTCTGGG
  switch fluorescence ratio: 0.997

## TTCAAGTCAA
  switch fluorescence ratio: 1.08

## TCGTCGAGAT
  switch fluorescence ratio: 1.02

## CACACCCCTC
  switch fluorescence ratio: 1.18

## ACAGACGGG
  switch fluorescence ratio: 0.985

## GTTAGCATGA
  switch fluorescence ratio: 1.06

## ATTGCAGGCA
  switch fluorescence ratio: 0.961

## GACAGTTAC
  switch fluorescence ratio: 1.29

## ATATGTTATT
  switch fluorescence ratio: 1.03

## TCTACACGCT
  switch fluorescence ratio: 1.02

## GGGGCACCCT
  switch fluorescence ratio: 0.982

## TAGAGGGTCA
  switch fluorescence ratio: 1.01

## CCACATGCGG
  switch fluorescence ratio: 0.99

## CCTAGGGGAT
  switch fluorescence ratio: 2.6

## GGCGGAACGA
  switch fluorescence ratio: 0.965

## ATGTTGTGG
  switch fluorescence ratio: 1.03

## CGTGATGACT
  switch fluorescence ratio: 0.993

## GAGGTTAACT
  switch fluorescence ratio: 0.996

## GATCTCTAGT
  switch fluorescence ratio: 0.999

## TCAAGTCTAC
  switch fluorescence ratio: 1.09

## TATGAGTCTC
  switch fluorescence ratio: 0.984

## TGGCCACCGG
  switch fluorescence ratio: 1.01

## CCTGTAAACA
  switch fluorescence ratio: 1.01

## TGGTACAGAC
  switch fluorescence ratio: 1.28

## ATACCCCGCA
  switch fluorescence ratio: 2.01

## TCAGAACGTT
  switch fluorescence ratio: 1.03

## GTAGTACATG
  switch fluorescence ratio: 1.02

## ACTAAAGACC
  switch fluorescence ratio: 1.1

## ATATATCAGT
  switch fluorescence ratio: 1.03

## TAATTTCCTC
  switch fluorescence ratio: 1.09

## GGAAATGCCC
  switch fluorescence ratio: 1.03

## TAGTAGCCGG
  switch fluorescence ratio: 1.05

## GAAGCATGAA
  switch fluorescence ratio: 1.08

## ATATACTGTA
  switch fluorescence ratio: 1.16

## ATTGCATTCG
  switch fluorescence ratio: 1.03

## GGGGCTCTTT
  switch fluorescence ratio: 1.02

## TGACGTTGAA
  switch fluorescence ratio: 0.984

## CCTAAAAAGT
  switch fluorescence ratio: 0.983

## GGTGCAGAGA
  switch fluorescence ratio: 1

## CCAACGGACG
  switch fluorescence ratio: 1.11

## GGTGATTTTG
  switch fluorescence ratio: 0.977

## TTCGAGCCCT
  switch fluorescence ratio: 1.05

## GTAATCACAG
  switch fluorescence ratio: 1.06

## TTAGGAAAG
  switch fluorescence ratio: 0.977

## TAACCACACG
  switch fluorescence ratio: 1.4

## CTCACAAGGT
  switch fluorescence ratio: 1.11

## CATCCTTTAC
  switch fluorescence ratio: 3.28

## GGTTTTAAGG
  switch fluorescence ratio: 0.957

## CCTAGACACC
  switch fluorescence ratio: 1.01

## TTGTGTAG
  switch fluorescence ratio: 0.994

## CAGTCCATTT
  switch fluorescence ratio: 0.94

## TATAGCGGCA
  switch fluorescence ratio: 1.03

## CGGTAAGGTC
  switch fluorescence ratio: 0.952

## CAAGTTCCGC
  switch fluorescence ratio: 1.12

## TCGGGTATCA
  switch fluorescence ratio: 1

## CAAAACCCGT
  switch fluorescence ratio: 1.22

## AAAAGCTATT
  switch fluorescence ratio: 0.987

## GATCTCTCTA
  switch fluorescence ratio: 1.02

## CGAATTATGG
  switch fluorescence ratio: 1

## TTTGAGAGGA
  switch fluorescence ratio: 1.01

## GGGTTCGGTT
  switch fluorescence ratio: 0.93

## AGGACTAAAA
  switch fluorescence ratio: 1.02

## GAATCATACT
  switch fluorescence ratio: 1

## TTCGTTACGA
  switch fluorescence ratio: 1.03

## ATCAGTGGGT
  switch fluorescence ratio: 1.01

## AATTGGTTC
  switch fluorescence ratio: 0.987

## GTTGAGTTTC
  switch fluorescence ratio: 1.03

## TCTGTCAAGT
  switch fluorescence ratio: 0.967

## GGAAACATTG
  switch fluorescence ratio: 1.03

## GTGAGTAGCA
  switch fluorescence ratio: 0.997

## CTGTGTAAGC
  switch fluorescence ratio: 1.02

## CCTTGGACGC
  switch fluorescence ratio: 1.82

## CTAAAGGGCC
  switch fluorescence ratio: 1.03

## TTAATCATTT
  switch fluorescence ratio: 1.02

## TTGCTTGGAG
  switch fluorescence ratio: 1.06

## TCAGAGTTTT
  switch fluorescence ratio: 0.97

## AGGACGCGCC
  switch fluorescence ratio: 1.02

## GTGGGCATAT
  switch fluorescence ratio: 1.02

## ATCTTGGGTC
  switch fluorescence ratio: 0.976

## TTAGGCATAG
  switch fluorescence ratio: 0.98

## GCTTTTATGG
  switch fluorescence ratio: 1

## GCAATTATTT
  switch fluorescence ratio: 1.05

## GCCTACGAAG
  switch fluorescence ratio: 1.05

## TACATTCGAA
  switch fluorescence ratio: 0.997

## TCTAGAGTAG
  switch fluorescence ratio: 0.978

## TTGTCAGAGG
  switch fluorescence ratio: 0.988

## ATTTGCATAA
  switch fluorescence ratio: 0.995

## AGAGATATGG
  switch fluorescence ratio: 0.975

## GTTAAGTTTG
  switch fluorescence ratio: 1.01

## TCCTGTATGA
  switch fluorescence ratio: 1.04

## ACTAAGAACT
  switch fluorescence ratio: 1.05

## TACTGCATGC
  switch fluorescence ratio: 1.19

## GCAATCGTAC
  switch fluorescence ratio: 2.14

## AGAATTGGTC
  switch fluorescence ratio: 1.05

## GGGAGTATTC
  switch fluorescence ratio: 0.983

## CAGTGTAATC
  switch fluorescence ratio: 1.06

## CTTGCCGTGT
  switch fluorescence ratio: 1.1

## GCTGACGAAG
  switch fluorescence ratio: 1.04

## GGGAATCGGA
  switch fluorescence ratio: 0.998

## CCCACTTTGG
  switch fluorescence ratio: 1.12

## GGGGTCACGT
  switch fluorescence ratio: 0.976

## TCTTCTTTTA
  switch fluorescence ratio: 1.05

## ACGGCGAGTG
  switch fluorescence ratio: 0.993

## TCTGTGGCTT
  switch fluorescence ratio: 0.983

## AGAGGCCGTA
  switch fluorescence ratio: 1.12

## TGACACTTGT
  switch fluorescence ratio: 0.985

## ACTCTACACG
  switch fluorescence ratio: 1.34

## GACGGGCGGG
  switch fluorescence ratio: 1

## GAGTGGGGTG
  switch fluorescence ratio: 0.973

## CCGCTGCTCT
  switch fluorescence ratio: 2.46

## TTTATTAGAG
  switch fluorescence ratio: 0.973

## CGAAGAGCCG
  switch fluorescence ratio: 1.03

## CTTCGGAGAT
  switch fluorescence ratio: 1.02

## GAGTTTGATT
  switch fluorescence ratio: 0.948

## AGTAAATCGA
  switch fluorescence ratio: 1.11

## GATCACTTAG
  switch fluorescence ratio: 1.04

## GCAAGCGTGT
  switch fluorescence ratio: 1.03

## GTCAGGGT
  switch fluorescence ratio: 0.989

## ATGGTGGAAA
  switch fluorescence ratio: 1.01

## CTGGCTTTCA
  switch fluorescence ratio: 1.04

## GAGGCCCGTT
  switch fluorescence ratio: 0.987

## AGTTCCTTA
  switch fluorescence ratio: 1

## CACGTATGAA
  switch fluorescence ratio: 1.13

## TCTCGGCAAT
  switch fluorescence ratio: 4

## GGGCGGTAGA
  switch fluorescence ratio: 1.06

## AAGGTGACAG
  switch fluorescence ratio: 0.979

## TGGTTCTTGG
  switch fluorescence ratio: 0.974

## ATGATTTGGA
  switch fluorescence ratio: 1.03

## AAGACCGCCG
  switch fluorescence ratio: 1.09

## GCGGAGTCGT
  switch fluorescence ratio: 0.963

## CGGTGATCTC
  switch fluorescence ratio: 0.991

## GGTTATTCGC
  switch fluorescence ratio: 0.994

## ATTCCCACCA
  switch fluorescence ratio: 1

## ACGTGGTACG
  switch fluorescence ratio: 1.06

## GTTGATACCA
  switch fluorescence ratio: 0.95

## CCCCGGAC
  switch fluorescence ratio: 1

## ACGAACCTAT
  switch fluorescence ratio: 1.27

## TTCCATGGTA
  switch fluorescence ratio: 0.986

## TTTCTCGGGA
  switch fluorescence ratio: 1.05

## GTGTTAATAG
  switch fluorescence ratio: 1.01

## GTATGTATGT
  switch fluorescence ratio: 0.919

## CGCGCATCTC
  switch fluorescence ratio: 2.13

## GGACCCCTTG
  switch fluorescence ratio: 0.976

## ATATGGTG
  switch fluorescence ratio: 0.988

## CTGTGTAGT
  switch fluorescence ratio: 1.16

## GACAAAATGG
  switch fluorescence ratio: 1.08

## CGTAGTCAGT
  switch fluorescence ratio: 1.07

## TTAGCCCTTC
  switch fluorescence ratio: 1.04

## TACTCCAGGG
  switch fluorescence ratio: 1.72

## AATGGAGCGA
  switch fluorescence ratio: 1.04

## AACCAGGGTA
  switch fluorescence ratio: 1.04

## GCCGAAATAG
  switch fluorescence ratio: 2.46

## AAAAAAACC
  switch fluorescence ratio: 1.04

## AACACATGTT
  switch fluorescence ratio: 1.04

## GCTACCCAAA
  switch fluorescence ratio: 1.02

## AGGTTATACA
  switch fluorescence ratio: 1.02

## CTTAGGAAAT
  switch fluorescence ratio: 1.04

## TTAGCCCCGT
  switch fluorescence ratio: 0.989

## GCATGGGATG
  switch fluorescence ratio: 1.07

## GGCTCACTTG
  switch fluorescence ratio: 1.03

## TGGCGGAAAT
  switch fluorescence ratio: 1.01

## CCTGAGAATG
  switch fluorescence ratio: 1.03
